Results as given in publication PMC4336329 (PLoS ONE, 2015).
Screen size: about 310,000 compounds; about 2,200 (0.71%) showed an effect of 50% or more. Effects have a minus sign here. Some of the results follow.

These compounds were tested against human ether-à-go-go-related gene (hERG) potassium channel (human, UniProt Q12809) (assay: primary screen, population patch clamp on CHO cells stably expressing hERG).
human ether-à-go-go-related gene (hERG) potassium channel, sequence (Q12809 whole entry, looked up): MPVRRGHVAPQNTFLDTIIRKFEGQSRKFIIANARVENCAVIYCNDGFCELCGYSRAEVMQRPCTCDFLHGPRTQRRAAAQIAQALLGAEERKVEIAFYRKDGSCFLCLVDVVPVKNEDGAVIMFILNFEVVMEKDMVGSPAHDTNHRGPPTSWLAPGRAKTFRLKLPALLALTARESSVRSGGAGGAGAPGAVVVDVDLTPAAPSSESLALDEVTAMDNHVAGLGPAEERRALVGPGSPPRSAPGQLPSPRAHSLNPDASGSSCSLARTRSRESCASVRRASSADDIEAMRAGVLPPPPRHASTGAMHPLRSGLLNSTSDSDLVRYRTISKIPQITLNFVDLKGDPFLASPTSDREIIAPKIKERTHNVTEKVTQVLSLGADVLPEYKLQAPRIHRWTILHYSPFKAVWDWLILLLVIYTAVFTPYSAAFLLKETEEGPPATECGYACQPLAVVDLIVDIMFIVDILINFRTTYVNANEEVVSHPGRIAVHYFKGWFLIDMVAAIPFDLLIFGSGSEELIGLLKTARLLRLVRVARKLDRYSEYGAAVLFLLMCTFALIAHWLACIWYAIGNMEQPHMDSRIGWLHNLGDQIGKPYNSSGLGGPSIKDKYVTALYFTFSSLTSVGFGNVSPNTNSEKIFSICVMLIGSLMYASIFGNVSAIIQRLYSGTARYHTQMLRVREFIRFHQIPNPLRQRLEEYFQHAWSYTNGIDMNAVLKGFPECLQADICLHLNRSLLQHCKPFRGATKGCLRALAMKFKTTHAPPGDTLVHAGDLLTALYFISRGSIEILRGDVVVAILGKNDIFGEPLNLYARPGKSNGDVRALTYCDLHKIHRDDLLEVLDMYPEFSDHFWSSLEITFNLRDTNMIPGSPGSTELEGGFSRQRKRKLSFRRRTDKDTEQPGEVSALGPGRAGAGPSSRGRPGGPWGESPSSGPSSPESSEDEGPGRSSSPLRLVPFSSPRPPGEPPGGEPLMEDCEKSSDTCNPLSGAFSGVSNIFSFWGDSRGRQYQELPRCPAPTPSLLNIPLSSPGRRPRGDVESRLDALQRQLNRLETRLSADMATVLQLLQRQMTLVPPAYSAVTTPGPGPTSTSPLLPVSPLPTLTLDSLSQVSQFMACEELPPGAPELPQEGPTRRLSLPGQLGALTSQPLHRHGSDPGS

Going from O=C(CSc1ccc2nnc(CCNC(=O)c3ccccc3)n2n1)Nc1ccccc1 to O=C(COC(=O)c1ccccc1Br)NCc1ccccc1, the “hERG current change (%, negative = inhibition) at 1uM” value rises from 6.2% to 11.1%.

Going from COc1ccc(-c2nc(C#N)c(N3CCOCC3)o2)cc1OC to CCCc1cc(=O)[nH]c(Nc2ccc(OC)c(Cl)c2)n1, the “hERG current change (%, negative = inhibition) at 1uM” value rises from -3.83% to 7.29%.

Compared with O=C(c1cc(-c2ccccc2)nn1-c1ccccc1)N1CCN(S(=O)(=O)c2ccc(F)cc2)CC1, O=C1CC(N2CCN(Cc3ccccc3)CC2)C(=O)N1CCc1ccccc1 (stereo not shown) is lower in “hERG current change (%, negative = inhibition) at 1uM” value: 10.9% for the first, -16.8% for the second.

Going from CC(=O)N(CCC1(C(C)C)CCOC(C)(C)C1)Cc1ccco1 (stereo not shown) to CCCOc1ccc(C2NC(=O)NC(c3ccccc3)=C2C(C)=O)cc1OCC (stereo not shown), the “hERG current change (%, negative = inhibition) at 1uM” value rises from -5.37% to 2.07%.

First: COc1ccc(C(=O)N/C(=C\c2ccccc2)C(=O)NC(CC(C)C)C(=O)O)cc1 (stereo not shown)
Second: CN1CCN(C(=O)/C(=C/c2cccc([N+](=O)[O-])c2)NC(=O)c2ccccc2)CC1
The “hERG current change (%, negative = inhibition) at 1uM” value of the first is higher: 21.4% for the first, -46.5% for the second.

Compared with NNC(=O)c1cc(-c2ccco2)[nH]n1, Cn1nccc1/C=N\NC(=O)c1ccc(Cl)cc1 is higher in “hERG current change (%, negative = inhibition) at 1uM” value: 5.83% for the first, 9.89% for the second.

Compared with COc1ccccc1CC(=O)NCc1ccc2c(c1)OCO2, Cc1ccccc1NC(=O)c1cc[n+]([O-])cc1 is lower in “hERG current change (%, negative = inhibition) at 1uM” value: 17.2% for the first, 16.6% for the second.

Compared with CN1CCN(S(=O)(=O)c2ccc([N+](=O)[O-])cc2)CC1, CC(=O)N1CCN(Cc2ccc(Cl)nc2)CC1 is higher in “hERG current change (%, negative = inhibition) at 1uM” value: 2.19% for the first, 17.3% for the second.

First: CCOC(=O)c1c(C)[nH]c(C=O)c1Cc1cccc(Cl)c1
Second: COc1ccc(Cl)cc1NC(=O)CN(C)CC(=O)Nc1ccc(C)cc1Br
The “hERG current change (%, negative = inhibition) at 1uM” value of the first is higher: 12.1% for the first, 10.2% for the second.

First: CC(=O)c1cccc(N(C(=O)CNC(=O)c2ccco2)C(C(=O)NC2CCCC2)c2ccncc2)c1 (stereo not shown)
Second: C/C(CC(=O)NC1CCCCC1)=N\NC(=O)Cc1ccc(-c2ccccc2)cc1
The “hERG current change (%, negative = inhibition) at 1uM” value of the first is higher: 6.49% for the first, 3.98% for the second.

First: C=CCOC(=O)C1=C[C@H](c2ccc(Br)cc2)[C@@H](CCCO)[C@H](OCC)O1
Second: O=C(CSc1nc2ccccc2o1)N1CCN(C(=O)c2ccco2)CC1
The “hERG current change (%, negative = inhibition) at 1uM” value of the first is lower: -10.3% for the first, -10.1% for the second.

Compared with CC(=O)c1cc(C#N)c(NCCCN(C)C)nc1C, Cc1cc(C)c(S(=O)(=O)Nc2nnc(C)s2)c(C)c1 is lower in “hERG current change (%, negative = inhibition) at 1uM” value: 17.7% for the first, -1.1% for the second.

CC(C)C[C@H](N)c1nnc(S(=O)(=O)Cc2cccc(F)c2)o1.Cl was tested, and the “hERG current change (%, negative = inhibition) at 1uM” value was 6.01%.
